Measured values taken from PMC3559651, “Functional Roles of the Non-Catalytic Calcium-Binding Sites in the N-Terminal Domain of Human Peptidylarginine Deiminase 4” (PLoS ONE, 2013).

B1: human PAD4 D155A (enzyme)
chain: not shown
notes: peptidylarginine deiminase 4 (PAD4), human; cDNA in pQE30, site-directed mutant; same vector as the wild type; source: E. coli JM109, purified (Ni-NTA)
B2: human PAD4 D157A (enzyme)
chain: not shown
notes: as for B1
B3: human PAD4 N153A (enzyme)
chain: not shown
notes: as for B1
B4: human PAD4 D179A (enzyme)
chain: not shown
notes: as for B1

Target: the molecule itself
Experiment: AUC; sedimentation velocity; enzymes 0.3 mg/ml in 30 mM Tris-acetate (pH 7.4) at 25°C for 16 h, run at 20°C, 42,000 rpm; continuous size distribution (SEDFIT)

Stoichiometry N, 2:
B1
B2
B3
B4
